# Residue numbers refer to the chain shown, from its start.
# T1: human GPR20 (human, UniProt Q99678 1-358)
# T1 construct: 358 amino acids, NCBI NP_005284; also called hGPR20; human GPR20 protein (NP_005284)
# T1 sequence: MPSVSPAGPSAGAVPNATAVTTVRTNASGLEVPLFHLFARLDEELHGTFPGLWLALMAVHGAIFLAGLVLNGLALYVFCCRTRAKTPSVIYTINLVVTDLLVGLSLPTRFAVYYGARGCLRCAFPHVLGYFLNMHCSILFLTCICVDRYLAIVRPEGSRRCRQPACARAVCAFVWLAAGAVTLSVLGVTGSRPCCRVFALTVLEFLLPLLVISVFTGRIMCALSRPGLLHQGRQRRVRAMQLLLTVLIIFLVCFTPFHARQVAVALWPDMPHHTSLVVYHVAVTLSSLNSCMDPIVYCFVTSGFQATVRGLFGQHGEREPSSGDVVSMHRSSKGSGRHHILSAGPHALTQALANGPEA
# B1: humanized h046-H8/L1 (antibody, human IgG1, kappa)
# heavy: QVQLQQSGAELAKPGSSVKISCKASGYTFTSYYISWIKQTTGQGLKYIGFINPGSGHTNYNEKFKGKATLTVDKSSSTANMQLSSLTPDDSAIYYCARGAGGFLRIITKFDYWGQGVMVTVSSASTKGPSVFPLAPSSKSTSGGTAALGCLVKDYFPEPVTVSWNSGALTSGVHTFPAVLQSSGLYSLSSVVTVPSSSLGTQTYICNVNHKPSNTKVDKRV[letters of human IgG1 Fc omitted]
# light: DIQMTQSPSSLSASVGDRVTITCRASKSVSTYIHWYQQKPGKAPKLLIYSASNLESGVPSRFSGSGSGTDFTLTISSLQPEDFATYYCQQINELPYTFGQGTKVEIKRTVAAPSVFIFPPSDEQLKSGTASVVCLLNNFYPREAKVQWKVDNALQSGNSQESVTEQDSKDSTYSLSSTLTLSKADYEKHKVYACEVTHQGLSSPVTKSFNRGEC
# notes: the claims and summary say 20 to 474
# B2: humanized h046-H10/L1 (antibody, human IgG1, kappa)
# heavy: B1 heavy with I20V
# light: B1 light
# notes: as for B1
# Target: T1, human GPR20
# Experiment: flow cytometry on 293T cells transfected with pcDNA3.1-hGPR20
# Method: The cells were cultured overnight under conditions of 37° C. and 5% CO₂, and thereafter, a cell suspension was prepared. To the obtained cell suspension, each humanized anti-GPR20 antibody was added, and the obtained mixture was left standing at 4° C. for 1 hour. […] The cells were left standing at 4° C. for 1 hour. The cells were washed twice with PBS supplemented with 5% FBS, and then re-suspended in PBS supplemented with 5% FBS, followed by detection using a flow cytometer (BD FACSCant II; BD Biosciences). The data was analyzed using Flowjo (Tree Star, Inc.). […] In the histograms of FIG. 24, the abscissa depicts the fluorescence intensity of PE indicating the amount of the antibody bound, and the ordinate depicts a cell count.
row,Binder,binding result
1,B1,binds
2,B2,binds

# From patent publication US20190225686A1 (Daiichi Sankyo, published 2019)
